Experimental data: PubChem BioAssay AID1159614 (National Center for Advancing Translational Sciences (NCATS), 2016)
About 65 (0.1%) of roughly 45,000 compounds were called active. The call rests on the fitted dose curve; in most records, active means well fitted activation curve with a large enough effect; inconclusive means small, poorly fitted or top-dose-only effect; inactive means no such curve, though single readings can be large or run the other way. This is one part of the list.

These molecules were tested against Galactocerebrosidase (Homo sapiens) (UniProt P54803) (assay: A Novel Cell-Based Assay to Identify Small Molecules for B -Galactocerebrosidase). Settings: 145M-Twi-hGALC-G270D cells (Twitcher mouse brain line with human GALC G270D), HMU-beta-Gal fluorescence, 48 h; series mostly up to 57.5 µM; activation: at the top concentration.
In short: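 Fluorescence readout: HMU-β-gal cleavage by mutant GALC (0.1 mM final, citrate/phosphate pH 5.2 with 1 mg/mL taurocholate), stopped with carbonate/bicarbonate plus Triton X-100. Cells: murine Twitcher 145M-Twi expressing human G270D GALC; qHTS for activators.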
Further: 0% is about no effect; nearly all actives have a fitted effect of over 65% in size.

Sequence of UniProt P54803 (P54803 whole entry, looked up): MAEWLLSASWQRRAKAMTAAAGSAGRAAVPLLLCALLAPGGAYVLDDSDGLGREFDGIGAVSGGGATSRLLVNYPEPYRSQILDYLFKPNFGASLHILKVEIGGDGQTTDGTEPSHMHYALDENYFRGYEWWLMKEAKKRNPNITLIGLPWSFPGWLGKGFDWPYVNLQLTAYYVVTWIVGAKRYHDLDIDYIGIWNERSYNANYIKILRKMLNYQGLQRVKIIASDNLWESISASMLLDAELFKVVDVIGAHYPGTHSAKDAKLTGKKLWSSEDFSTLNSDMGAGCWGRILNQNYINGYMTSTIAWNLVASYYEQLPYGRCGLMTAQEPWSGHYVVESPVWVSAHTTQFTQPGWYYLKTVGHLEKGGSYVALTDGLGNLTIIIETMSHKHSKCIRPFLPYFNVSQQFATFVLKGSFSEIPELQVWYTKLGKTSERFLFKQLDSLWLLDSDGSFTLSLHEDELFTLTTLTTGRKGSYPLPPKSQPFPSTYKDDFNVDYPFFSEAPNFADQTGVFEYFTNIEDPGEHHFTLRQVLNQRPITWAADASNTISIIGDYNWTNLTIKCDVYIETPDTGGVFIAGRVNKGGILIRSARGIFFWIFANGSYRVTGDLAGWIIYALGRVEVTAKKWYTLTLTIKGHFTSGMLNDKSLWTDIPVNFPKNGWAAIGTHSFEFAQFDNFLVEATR

activation, inactive:
COc1ccc(CC(=O)NC2CC(=O)N(c3ccc(C)c(C)c3)C2)cc1OC (configuration not stated) -4.76%
O=C(Cn1c(=O)oc2cc(S(=O)(=O)N3CCCCC3)ccc21)NCc1ccc(F)cc1 -41.4%
CC1CCN(c2nc3ccc(C(=O)NCCc4ccc(S(N)(=O)=O)cc4)cc3s2)CC1 -13.4%
CCc1ccc(NC(=O)CSc2ncc(S(=O)(=O)c3cc(C)ccc3C)c(=O)[nH]2)cc1 -1.6%
O=C(O)Cc1cn(-c2ccccc2)nc1-c1ccc(Cl)cc1 -10.8%
COC(=O)c1ccccc1NC(=O)C1CCCN(c2nnc(C)c3c(C)n(-c4ccccc4)nc23)C1 (configuration not stated) -14.3%
CCOC(=O)C(Cc1ccccc1)NC(=O)CCc1c(C)nc2c(c(C)nn2-c2ccc(C)c(C)c2)c1C (configuration not stated) -30.3%
O=NN(CCCl)C(=O)NC1CCCCC1 -14.8%
COC(=O)c1c(NC(=O)c2ccc(S(=O)(=O)N(C)C3CCCCC3)cc2)sc2c1CCN(C)C2 -24.1%
O=C(CN1C(=O)CCc2cc(S(=O)(=O)N3CCCCC3)ccc21)NCc1ccc(Cl)cc1 -3.3%
Cc1cccc2sc(N(Cc3cccnc3)C(=O)C3COc4ccccc4O3)nc12 (configuration not stated) -20.5%
COc1ccc(-c2nc(Cn3c(SCc4ccccc4F)nc4cccnc43)c(C)o2)cc1 -11.7%
Cc1ccc(CNC(=O)CN2C(=O)C3(SCC(=O)N3c3ccc(F)c(F)c3)c3ccccc32)cc1 (configuration not stated) -19.1%
Cc1cc(NC(=O)c2cnc3c(-c4ccccc4)c(C)nn3c2C)ccc1Br -11.6%
Cc1cc(NC(=O)C(C)(C)C)cc(-c2nc3ncccc3o2)c1O -6.73%
Cc1cccc(N2CCN(C(=O)CN3C(=O)COc4ccc(S(=O)(=O)N5CCCC5)cc43)CC2C)c1 (configuration not stated) 6.57%
Cc1ccc(C)c(N2CCN(C(=O)CS(=O)(=O)c3cccc4nsnc34)CC2)c1 -36.8%
COc1ccc(OCC(=O)NCC(c2ccc(OC)cc2)N2CCOCC2)cc1 (configuration not stated) 2.49%
Cc1ccc(CNC(=O)c2ccccc2NC(=O)c2nsc3ccccc23)cc1 -18.3%
COc1cccc(CNCCSc2nnnn2-c2ccccc2)c1OC -15.9%
COc1ccc(-c2c(C)c3ccc(O)c(CN4CCCC4)c3oc2=O)cc1 -16.2%
CCn1c(SCC(=O)c2ccccc2)nnc1-c1cccc(Cl)c1 -9.36%
CCc1c(CN2CCN(c3ccccc3F)CC2)csc1C -11.1%
O=C(Cn1c(-c2cccs2)cc2cc(F)ccc21)NCCCN1CCN(c2ccc(F)cc2)CC1 -11%
Cc1ccc(/C=C/c2onc(C)c2S(=O)(=O)N2CCC(C(=O)NCc3ccc(OC(C)C)cc3)CC2)cc1 -8.66%
Cc1ccc(-c2nc(CS(=O)CC(=O)NCCc3ccc(Cl)cc3)c(C)o2)cc1 (configuration not stated) -13.6%
CC(CNC(=O)CCCn1c(=O)c2cccn2c2ccc(F)cc21)c1ccccc1 (configuration not stated) -11.9%
Cc1cccc(C(=O)NNc2ncnc3c2cnn3-c2ccc(C)c(Cl)c2)c1 -22.5%
COc1cc(NC(=O)C2Cc3ccccc3N2C(=O)c2ccccc2)cc(OC)c1 (configuration not stated) -8.77%
O=C(O)CCC(=O)Nc1ccc(S(=O)(=O)Nc2nccs2)cc1 -5.4%
COc1ccc(N2CCN(c3ncnc4c3nnn4C)CC2)cc1 -1.22%
COC(=O)c1cc2sccc2n1CC(=O)Nc1cc(Cl)ccc1OC -5.55%
COc1ccc(OCCn2nnc3sc4c(c3c2=O)CCCC4)cc1 -13.2%
CCOc1ccc(-n2nc(CO)c(C(=O)NCC(C)O)n2)cc1 (configuration not stated) 1.99%
N#Cc1c(C(F)(F)F)cc(-c2cccs2)nc1SCc1ccccc1F -12.1%
Clc1ccccc1CSc1nc(NCCc2ccccc2)c2ccccc2n1 2.08%
CCOc1ccccc1Oc1nc(C)nc2c1oc1ccccc12 -15.4%
COc1cnc(NS(=O)(=O)c2ccc(N)cc2)nc1 -9.7%
CCOC(=O)c1c(C)[nH]c(C)c1S(=O)(=O)NCC(=O)NCc1ccccc1C -10.1%
CCOc1ccccc1CNS(=O)(=O)c1cc(-c2onc(C)c2C)ccc1OC 2.59%
CCOC(=O)C1CCN(c2ncnc3c2c(-c2ccccc2)cn3-c2ccc(Cl)cc2)CC1 -5.01%
CCC(=O)N1c2ccccc2CC1C(=O)N1CCN(c2ccccc2F)CC1 (configuration not stated) -12.9%
Cc1ccc(NC(=O)Cn2c(=O)n(CCCCC(=O)NCc3ccc4c(c3)OCO4)c(=O)c3ccccc32)cc1 11.7%
Cc1cccc(N2CCN(C(=O)c3ccc4c(c3)N(Cc3cccc(Cl)c3)C(=O)c3ccccc3S4(=O)=O)CC2)c1C -9.19%
CCN(Cc1ccccc1)C(=O)Cn1ncc2c(=O)oc3ccc(C)cc3c21 -17%
CCOc1ccc(NC(=O)CCc2nnc3n(C)c(=O)c4sccc4n23)cc1 4.08%
O=C(CSc1ncc2c(n1)-c1ccccc1N(Cc1ccc(Cl)cc1)S2(=O)=O)c1ccccc1 -10.4%
O=C(O)CCn1c2c(c3ccccc31)C[C@H](NS(=O)(=O)c1ccc(F)cc1)CC2 -25.1%
CCOc1ccccc1Nc1sc(C(=O)c2ccc(Cl)cc2)c(N)c1S(=O)(=O)c1ccccc1 -9.42%
CC(CNC(=O)C1CCN(C(=O)c2cc3sccc3n2C)CC1)c1ccccc1 (configuration not stated) -7.31%
CCOc1ccc(CNCc2c(C(=O)O)n(Cc3ccccc3C)c3cc(OC)ccc23)cc1OC -20.4%
Cc1ccc(S(=O)(=O)C(CNS(=O)(=O)c2ccc(F)c(C(F)(F)F)c2)c2ccco2)cc1 (configuration not stated) -8.12%
COc1ccccc1NC(=O)Cn1ccn(-c2cc(C)cc(C)c2)c(=O)c1=O -16.9%
CCC(C(=O)NC1CCCCC1)n1c(SCc2cccc(F)c2)nc2ccncc21 (configuration not stated) -46.4%
Cc1cccc(CN2CCN(C(c3ccccc3)c3ccc(Cl)cc3)CC2)c1 (configuration not stated) -17.4%
Cc1ccc(Cl)cc1N1CCN(C(=O)CCS(=O)(=O)c2ccc3c(c2)oc(=O)n3C)CC1 -10.4%
CCOc1cccc(NC(=O)C2CC(=O)N(C)C(=Nc3ccc(OC)cc3)S2)c1 (configuration not stated) -14.2%
Cn1nc(C(=O)NCc2ccccc2)c2c1-c1ccccc1S(=O)(=O)C2 -13.7%
Cc1ccc(Cl)cc1Nc1nn2c(=O)c3ccc(C(=O)NC(C)c4ccccc4)cc3nc2s1 (configuration not stated) -4.17%
O=C(C1CCCCC1)N1CC(=O)N2CCCc3ccccc3C2C1 (configuration not stated) -27.5%
CCOc1ccc(-c2nc3cc(NC(=O)COc4cccc(C)c4)ccc3o2)cc1 -9.63%
CN(C(=O)CSc1nc2ccccc2n1Cc1ccccc1C#N)c1ccccc1 -43.2%
